From patent publication US20140004122A1, “METHODS FOR TREATING OR PREVENTING CHOLESTEROL RELATED DISORDERS” (AMGEN INC., priority 2011, published 2014) come the findings set out here.

This assay deals with D374Y PCSK9 binding to LDLR (Homo sapiens, UniProt Q8NBP7, D374Y). Kind of assay: Large scale receptor ligand blocking screen and functional classification of ABPs. To be noted: functional assays of the screening. Here is the method: To screen for the antibodies that block PCSK9 binding to LDLR an assay was developed using the D374Y PCSK9 mutant. […] The following protocol was employed in the receptor ligand blocking screen: Costar 3702 medium binding 384 well plates (Corning Life Sciences) were employed in the screen. The plates were coated with goat anti-LDLR (R&D Cat #AF2148) at 2 μg/ml in 1×PBS/0.05% Azide at a volume of 40 μl/well. The plates were incubated at 4° C. overnight. The plates were then washed using a Titertek plate washer (Titertek, Huntsville, Ala.). A 3-cycle wash was performed. The plates were blocked with 90 μl of 1×PBS/1% milk and incubated approximately 30 minutes at room temperature. The plates were then washed using the Titertek plate washer. A 3-cycle wash was performed. The capture sample was LDLR (R&D, Cat #2148LD/CF), and was added at 0.4 μg/ml in 1×PBS/1% milk/10 mM Ca^2+ at a volume of 40 μl/well. The plates were then incubated for 1 hour and 10 minutes at room temperature. […] OD's were read immediately at 450 nm using a Titertek plate reader. […]
Limiting dilution was used to isolate a manageable number of clones from each line. […] The concentration and potency of the antibodies to PCSK9 in the supernatants of those cultures were determined by ELISA and by in vitro functional testing, as described herein.

B1: 9C9: anti-PCSK9 antibody; light/heavy variable region SEQ ID NO 30/64 (antibody, listed as Homo sapiens, V domains shown)
VH: EVQLVESGGGLVQPGGSLRLSCVVSGFTFSSYWMSWVRQAPGKGLEWVANIKQDGSEKYYVDSVKGRFTISRDNAKNSLYLQMNSLRAEDTAVYYCARESNWGFAFDIWGQGTMVTVSS
VL: QSVLTQPPSASGTPGQRVTISCSGSSSNIGSKTVNWYQQVPGTAPKLLIYRNNQRPLGVPDRFSGSKSGTSASLAISGLQSEDEADYYCAAWDDSLNWVFGGGTKLTVL
In the case of B1, the “neutralizing ability (blocking PCSK9/LDLR)” value was “weak neutralizers”.
